One may read the Kd as the concentration at which binding is half-saturated.

Numbering of substitutions follows the chain as printed.

Assay [1] deals with FGFR3. The experiment in a line: Agonist activity of parental anti-FGFR3 antibodies (Table 1). Type of assay: cell-based. To be noted: for EC50: read-out: Agonist Activity (first value of the cell), cell prints value/%, unit inferred.
Assay [2] has as its system FGFR3. The experiment in a line: Ligand blocking activity of parental anti-FGFR3 antibodies (Table 1). Particulars: for IC50: cell prints value/%, unit inferred, NB not defined for this column, read-out: Ligand Blocking Activity (first value of the cell). Format: binding.
In the next assay the target is hFGFR3b (mmh). As to the kind of experiment: Biacore binding to human FGFR3b. Particulars: unit inferred; NB = no binding observed. As to the method:
(§1) Affinity and mechanism of action of binding of anti-FGFR3 antibodies to FGFR3 isoforms were determined by Biacore analysis. In brief, in-house generated monoclonal anti-human Fc antibody was immobilized on the surface of a CM-5 sensor chip. Different concentrations of FGFR3 antibodies were injected at 50 μL/min for 4 min and the assay was performed at 25° C. The mAb binding response was monitored and, for low affinity receptors, steady-state binding equilibrium was calculated. Kinetic association (ka) and dissociation (kd) rate constants were determined by processing and fitting the data to a 1:1 binding model using Scrubber 2.0 curve fitting software. Binding dissociation equilibrium constants (KD) and dissociative half-lives (t1/2) were calculated from the kinetic rate constants using the formula: KD (M)=kd/ka; and t1/2 (min)=(ln2/(60*kd). Some KD values were derived using the steady state equilibrium dissociation constant; When no KD values could be derived, it was marked as NB (no binding observed) or IC (inconclusive affinity determination due to low specific RU signal).
On the technique in general: In SPR one partner is held on a chip, and binding of the other changes the refractive index at the surface.

The target of another assay is mfFGFR3b (mmh). As to the kind of experiment: Biacore binding to monkey FGFR3b. Particulars: unit inferred. How it is done:
as §1

Another assay has as its target T1, moFGFR3b (mmh) (Mus musculus, UniProt Q61851).
T1 construct: biotinylated human or mouse FGFR3b-ecto.mmH, human FGFR3c-ecto.mmH; mmh (own knowledge: myc-myc-hexahistidine) (C)
T1 sequence (Q61851 21-371 isoform Q61851-2): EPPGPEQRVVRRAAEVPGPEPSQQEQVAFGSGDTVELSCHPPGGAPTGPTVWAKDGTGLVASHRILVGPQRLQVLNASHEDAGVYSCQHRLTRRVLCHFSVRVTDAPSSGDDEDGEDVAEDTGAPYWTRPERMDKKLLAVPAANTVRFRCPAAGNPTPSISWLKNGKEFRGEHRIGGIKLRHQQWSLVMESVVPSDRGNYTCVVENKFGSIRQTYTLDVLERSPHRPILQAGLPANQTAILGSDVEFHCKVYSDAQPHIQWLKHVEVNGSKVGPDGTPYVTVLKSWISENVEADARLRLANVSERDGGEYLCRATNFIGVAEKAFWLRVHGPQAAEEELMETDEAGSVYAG
The experiment in a line: Biacore binding to mouse FGFR3b. To be noted: unit inferred; NB = no binding observed. How it is done: as §1

The target in the next assay is T2, hFGFR3c (mmh) (Homo sapiens, UniProt P22607).
T2 construct: biotinylated human or mouse FGFR3b-ecto.mmH, human FGFR3c-ecto.mmH; mmh (own knowledge: myc-myc-hexahistidine) (C)
T2 sequence (P22607 23-375 limits assumed): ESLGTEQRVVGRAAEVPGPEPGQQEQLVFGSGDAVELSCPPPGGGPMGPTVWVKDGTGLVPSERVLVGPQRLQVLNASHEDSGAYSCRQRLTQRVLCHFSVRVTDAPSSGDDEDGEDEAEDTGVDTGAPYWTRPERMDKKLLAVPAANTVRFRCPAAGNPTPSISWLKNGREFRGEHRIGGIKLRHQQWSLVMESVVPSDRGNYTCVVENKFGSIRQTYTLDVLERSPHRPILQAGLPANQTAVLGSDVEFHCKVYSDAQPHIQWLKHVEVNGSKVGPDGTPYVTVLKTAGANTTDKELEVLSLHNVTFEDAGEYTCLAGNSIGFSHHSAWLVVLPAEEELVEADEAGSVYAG
As to the kind of experiment: Biacore binding to human FGFR3c. Particulars: unit inferred; NB = no binding observed. How it is done:
as §1

B1: mAb071: parental anti-FGFR3 antibody; additional scFv arm of AF antibodies (antibody)
heavy: QVQLQQSGPGLVKPSQTLSLTCAISGDSVSRNSAAWNWIRQSPSSGLEWLGRTYYRSKWFYDYAISVKSRITVNPDTSKNQFSLHLNSVTPEDTAVYYCARGYGGYEDYFDYWGQGTLVTVSSASTKGPSVFPLAPCSRSTSESTAALGCLVKDYFPEPVTVSWNSGALTSGVHTFPAVLQSSGLYSLSSVVTVPSSSLGTKTYTCNVDHKPSNTKVDKRV[human IgG4 Fc with S228P (EU numbers) cut from this listing]
light: DIQMTQSPSSVSASVGDRVTITCRASQGISSWLAWYQQKPGKAPKLLIYGASSLQSGVPSRFSGSGSGTDFTLTISSLQPEDFATYFCQQGSSFPYTFGQGTKLEIKRTVAAPSVFIFPPSDEQLKSGTASVVCLLNNFYPREAKVQWKVDNALQSGNSQESVTEQDSKDSTYSLSSTLTLSKADYEKHKVYACEVTHQGLSSPVTKSFNRGEC
As for B1, the “Agonist Activity (percent value of the cell)” value with FGFR3 [1] amounted to 17.2%. Also, in the assay on FGFR3 [2], the “Ligand Blocking Activity (percent value of the cell)” value amounted to 88%. For the same molecule, the IC50 in the assay on FGFR3 [2] worked out at 3.6 nM. Further, the Kd came to 0.703 nM on hFGFR3b (mmh), 0.827 nM at mfFGFR3b (mmh) and 15.5 nM with moFGFR3b (mmh).

B2: mAb076: parental anti-FGFR3 antibody; anchor or additional arm of AF antibodies (antibody)
heavy: EVQLVESGGGLVQPGGSLRLSCAASGFTVSSNYMSWVRQAPGKGLEWVSIIYSGGHTYYSDSVKGRFTISRHNSKNTLYLQMNSLRGGDTAVYYCARGYTSGWYGFDFWGQGTLVTVSSASTKGPSVFPLAPCSRSTSESTAALGCLVKDYFPEPVTVSWNSGALTSGVHTFPAVLQSSGLYSLSSVVTVPSSSLGTKTYTCNVDHKPSNTKVDKRV[human IgG4 Fc with S228P (EU numbers) cut from this listing]
light: B1 light with S31T, G50A, S65T, F87Y, G91T, S92N, Y96W, L104V
As for B2, in the assay with FGFR3 [1], the “Agonist Activity (percent value of the cell)” value worked out at 15.2%. The “Ligand Blocking Activity (percent value of the cell)” value in the assay with FGFR3 [2] is given as −1%. In addition, the equilibrium dissociation constant (Kd) at hFGFR3b (mmh) came out at 1.09 nM; at mfFGFR3b (mmh) it was 1.2 nM; in the assay with moFGFR3b (mmh) it was 0.818 nM.

B3: mAb061: parental anti-FGFR3 antibody; additional scFv arm of AF antibodies (antibody)
heavy: EVQLVESGGGLAQPGGSLKLSCEASGFTFSDSAMHWVRQASGKGLEWVGRIRSKANSYATGYAASVKGRFTISRDDSKNMAFLEMNSLKTEDTAVYYCLRQTYGDPWGQGTLVTVSSASTKGPSVFPLAPCSRSTSESTAALGCLVKDYFPEPVTVSWNSGALTSGVHTFPAVLQSSGLYSLSSVVTVPSSSLGTKTYTCNVDHKPSNTKVDKRV[human IgG4 Fc with S228P (EU numbers) cut from this listing]
light: DVVMTQSPLSLSVTLGQPASISCRSSLSLVYSDGNNYLNWFQQRPGQSPRRLLYKVFNRDSGVPDRFSGSGSGTDFTLKISRVEAEDVGVYYCMQGTHWPWTFGQGTKVEIKRTVAAPSVFIFPPSDEQLKSGTASVVCLLNNFYPREAKVQWKVDNALQSGNSQESVTEQDSKDSTYSLSSTLTLSKADYEKHKVYACEVTHQGLSSPVTKSFNRGEC
For the molecule B3, in the assay with FGFR3 [1], the “Agonist Activity (percent value of the cell)” value was determined as 55.3% and the EC50 is 0.18 nM. In the assay with FGFR3 [2], the “Ligand Blocking Activity (percent value of the cell)” value is given as 84% and the IC50 is 3.9 nM. Also, the dissociation constant Kd on hFGFR3b (mmh) was 2.5 nM. Also, binding with hFGFR3c (mmh) was put at a Kd of 3.93 nM. Further, the Kd on mfFGFR3b (mmh) is 3.42 nM.

B4: mAb045: parental anti-FGFR3 antibody; additional scFv arm of AF antibodies (antibody)
heavy: QVQLVQSGAEVKKPGASVKVSCKTSGYRFVNYGFSWVRQAPGQGLEWMGWISPYNGNTNYIQNLQDRITMTTDTSTNTAYMELTNLRSDDTAVYYCATLTGVHFDYWGQGTLVTVSSASTKGPSVFPLAPCSRSTSESTAALGCLVKDYFPEPVTVSWNSGALTSGVHTFPAVLQSSGLYSLSSVVTVPSSSLGTKTYTCNVDHKPSNTKVDKRV[human IgG4 Fc with S228P (EU numbers) cut from this listing]
light: AIQMTQSPSSLSASVGDRVTITCRASQGIRNDLGWYQQKPGKAPNLLIFETSRLQSGVPSRFSGSGSGTDFTLTINSLQPEDFATYYCLQDYNYPWTFGQGTKVEIKRTVAAPSVFIFPPSDEQLKSGTASVVCLLNNFYPREAKVQWKVDNALQSGNSQESVTEQDSKDSTYSLSSTLTLSKADYEKHKVYACEVTHQGLSSPVTKSFNRGEC
Consider B4, for which the “Agonist Activity (percent value of the cell)” value in the assay on FGFR3 [1] was determined as 31.3%. Moreover, in the assay with FGFR3 [1], the EC50 turned out to be 0.11 nM. Moreover, the “Ligand Blocking Activity (percent value of the cell)” value with FGFR3 [2] is 3%. For the same molecule, the equilibrium dissociation constant (Kd) at hFGFR3b (mmh) was 20.2 nM; with hFGFR3c (mmh), 20.4 nM; on mfFGFR3b (mmh) it was 13.9 nM.

Source of the values: patent publication US20240247069A1, “FGFR3 BINDING MOLECULES AND METHODS OF USE THEREOF” (Regeneron Pharmaceuticals, Inc., priority 2023, published 2024).
